Test results from PubChem BioAssay AID504832 (National Center for Advancing Translational Sciences (NCATS), 2011).
In all, about 310,000 compounds went through this assay and about 18,000 (5.8%) were called active. The shares of active, inactive and inconclusive entries below differ from those in the screen. The call rests on the fitted dose curve; in most records, active means well fitted inhibition curve with a large enough effect; inconclusive means small, poorly fitted or top-dose-only effect, or another doubt; inactive means no such curve, though single readings can be large or run the other way. Potencies of inconclusive entries are left out as doubtful fits.
On the % scale 0 is the no-effect control and ±100 the full control effect; potency means the concentration at half of the fitted maximal effect; tags describe the fitted curve by direction and shape.

Assay: Primary qHTS for delayed death inhibitors of the malarial parasite plastid, 48 hour incubation
Conditions: P. falciparum luciferase growth in erythrocytes; series mostly up to 28.7 µM
Procedure, shortened: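 Luciferase-expressing parasites in RBCs, 2% Hct / 0.1% parasitemia final; RPMI 1640 + 0.5% Albumax; 37 C, 5% CO2, one generation; luminescence read-out, lower signal = inhibition.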
In the case of `O=C(Sc1cccc2cccnc12)c1ccc(F)cc1`, the Potency is reported as active: 6.57 µM.
With `Cc1cc2cc(C)c(SCC(=O)NCc3ccco3)nc2cc1C` the Potency was inconclusive [inhibitor, partial curve].
For `Cc1cccn2c(=O)c3c(nc12)N1CCC(Cc2ccccc2)CC1C1(C3)C(=O)N(C)C(=O)N(C)C1=O` (stereo not drawn), the Potency was inconclusive [inhibitor, single point].
With `N#Cc1ccc(COC(=O)c2ccc(N3CCCC3)c([N+](=O)[O-])c2)cc1` the Potency was “inactive”.
In the case of `O=C(Nc1ccccc1N1CCOCC1)C1(c2ccc(Cl)cc2)CCC1`, the Potency is reported as inconclusive [inhibitor, partial curve, poor fit].
In the case of `CC(=O)N1CCOc2cc(S(=O)(=O)Nc3cccc(C(F)(F)F)c3)c(Cl)cc21`, the Potency is reported as active: 13.1 µM.
In the case of `CC1(NC(=O)CCc2nc3sc4c(c3c(=O)[nH]2)CCCC4)CCS(=O)(=O)C1` (stereo not drawn), the Potency is reported as “inactive”.
With `CN=C1CC(SC)=C1c1ccc(C)cc1` the Potency was “inactive”.
For `COc1ccc(-c2cc(C(F)F)n3ncc(C(=O)N4CCN(C(=O)c5ccco5)CC4)c3n2)cc1`, the Potency was inconclusive [inhibitor, partial curve].
For `CCn1cc(/C=C/C(=O)Nc2ccn(Cc3c(F)c(F)cc(F)c3F)n2)cn1`, the Potency was inconclusive [inhibitor, partial curve, poor fit].
In the case of `CCOC(=O)C(C)Sc1ccc2nnc(-c3ccc(F)cc3)n2n1` (stereo not drawn), the Potency is reported as inconclusive [inhibitor, full curve, poor fit].
With `O=C(CN1C(=O)CCS(=O)(=O)c2ccccc21)NCc1ccccc1` the Potency was “inactive”.
With `CCOc1ccc(Br)cc1C(=O)N/N=C/c1c[nH]c2ccccc12` the Potency was inconclusive [inhibitor, single point].
With `Cc1cc(C(=O)Nc2ccc(Cl)c(S(=O)(=O)N3CCOCC3)c2)c2ccccc2n1` the Potency was inconclusive [inhibitor, partial curve].
For `CC(=O)Nc1ccc(S(=O)(=O)N2CCC(NC(C)=O)(c3cccc(F)c3)CC2)cc1`, the Potency was inconclusive [inhibitor, single point].
With `COc1cc(/C=C2\SC(N3CCCCC3)=NC2=O)cc(OC)c1OC` the Potency was inconclusive [inhibitor, single point].
With `COC(=O)CCC(=O)OC1(C)C(=O)C2=CN(C(CO)CO)C(c3ccc(OC)cc3)=CC2=C(Br)C1=O` (stereo not drawn) the Potency was inconclusive [inhibitor, single point].
For `COc1ccccc1C1CC(c2ccc(Cl)cc2)Nc2ncnn21` (stereo not drawn), the Potency was active: 13.1 µM.
With `Cc1ccc2nc(C(Cl)(Cl)Cl)nc(N/N=C/c3ccncc3)c2c1` the Potency was inconclusive [inhibitor, partial curve, poor fit].
In the case of `CC1(C)CC(N2CCN(CCO)CC2)=CC(=S)N1`, the Potency is reported as “inactive”.
In the case of `CCOc1ccc(C(C(=O)NC2CCCCC2)N(C(=O)c2csnn2)C2CC2)cc1` (stereo not drawn), the Potency is reported as inconclusive [inhibitor, single point].
In the case of `COC(=O)c1sccc1NC(=O)c1ccnn1C`, the Potency is reported as “inactive”.
In the case of `CCC(=O)N(CCC(c1ccccc1)c1ccco1)Cc1cccs1` (stereo not drawn), the Potency is reported as inconclusive [inhibitor, partial curve, poor fit].
For `CCN(CC(=O)Nc1ccc2c(c1)OCCO2)C(=O)c1ccc(C(F)(F)F)cc1`, the Potency was “inactive”.
With `Cc1c(C(=O)NCCC2=CCCCC2)sc2ncnc(N3CCCCC3C)c12` (stereo not drawn) the Potency was inconclusive [inhibitor, partial curve].
With `Cc1ccc(C)c(OCCC(=O)N2CCN(S(=O)(=O)c3ccc([N+](=O)[O-])cc3)CC2)c1` the Potency was inconclusive [inhibitor, single point].
With `c1ccc2c(N3CCOCC3)nc(N3CCOCC3)nc2c1` the Potency was inconclusive [inhibitor, single point].
For `NC(=O)c1cc(S(=O)(=O)NCCc2ccc(Cl)cc2)cs1`, the Potency was inconclusive [inhibitor, single point].
For `O=C(OCC(=O)N(Cc1ccccc1)Cc1ccccc1)c1cccc(O)c1`, the Potency was inconclusive [inhibitor, single point].
With `CC(C)c1ccccc1NS(=O)(=O)c1cccs1` the Potency was “inactive”.
For `CCc1cc(Cn2nc(-c3ccccc3)cc2C(=O)NCc2cccc(C(F)(F)F)c2)on1`, the Potency was inconclusive [inhibitor, single point].
For `COC1(OC)N=C(N)C2(C#N)C(c3ccc(C)cc3)C12C#N` (stereo not drawn), the Potency was inconclusive [inhibitor, full curve, poor fit].
For `COc1ccc(S(=O)(=O)N2CCN(C(=O)c3cc(C)on3)CC2)cc1`, the Potency was “inactive”.
With `O=C1CN(c2nc(-c3cccnc3)nc3sc4c(c23)CCCC4)CCN1` the Potency was inconclusive [inhibitor, partial curve, poor fit].
In the case of `O=C1C=C(c2ccc(Oc3ccccc3)cc2)C[C@@H](c2ccc3c(c2)OCO3)C1`, the Potency is reported as “inactive”.
In the case of `COc1cc(NC(=O)NC2Cc3ccccc3C2)cc(OC)c1`, the Potency is reported as inconclusive [inhibitor, single point].
With `COCCNC(=O)C(NC(=O)C1CCCCC1)C12CC3CC(CC(C3)C1)C2` (stereo not drawn) the Potency was inconclusive [inhibitor, partial curve].
For `Cc1cc(C=O)c(C)n1-c1sc2c(c1C(=O)O)CCCC2`, the Potency was “inactive”.
In the case of `COc1cccc(/C(O)=C2\C(=O)C(=O)N(c3ccccn3)C2c2cccc(OC)c2OC)c1` (stereo not drawn), the Potency is reported as inconclusive [inhibitor, single point].
In the case of `CC(C)N1CCc2c(sc(NC(=O)c3ccc(C(=O)c4ccccc4)cc3)c2C(N)=O)C1`, the Potency is reported as active: 13.1 µM.
With `CN1CCCN(S(=O)(=O)c2cccc(C#N)c2)CC1` the Potency was “inactive”.
For `CCC(C)n1c(C)nc2c(c1=O)c1nc3ccccc3nc1n2CCC1=CCCCC1` (stereo not drawn), the Potency was active: 13.1 µM.
For `COC(=O)C1=C(c2ccc(OC(F)(F)F)cc2)C[C@@H]2CC[C@H]1N2C(=O)NC(C)C`, the Potency was inconclusive [inhibitor, single point].
In the case of `O=C(O)c1cccc(-c2ccc(/C=C3/SC(=Nc4ccccc4)N(Cc4cccnc4)C3=O)o2)c1`, the activity change, negative = inhibition is reported as inactive: -0.925% [at 0.00184 µM].
For `COC(=O)c1cccc(NC(=O)c2ccccc2)c1`, the Potency was “inactive”.
For `CCn1c(SCC(=O)Nc2cc(OC)c(OC)c(OC)c2)nnc1-c1cccs1`, the Potency was inconclusive [inhibitor, single point].
For `Cc1ccccc1-c1ccc(CN2CCN(C)C(CCO)C2)cc1` (stereo not drawn), the Potency was inconclusive [inhibitor, partial curve, poor fit].
In the case of `Cc1oc(-c2cccc(F)c2)nc1CN1CCCCC1CCc1ccccn1` (stereo not drawn), the Potency is reported as active: 13.1 µM.
For `C=CCNc1scc(-c2ccccc2)[n+]1CC=C`, the Potency was active: 4.15 µM.
With `CCOC(=O)Cc1csc(NC(=O)c2ccoc2C)n1` the Potency was “inactive”.
With `COc1ccc(Nc2nc(NCc3ccco3)nc(N/N=C/c3ccc(O)cc3)n2)cc1` the Potency was inconclusive [inhibitor, single point].
With `Cc1ccc(-n2nc3c(N4CCC(C(=O)N5CCC(C(N)=O)CC5)CC4)nnc(C)c3c2C)cc1` the Potency was inconclusive [inhibitor, single point].
In the case of `O=C(Nc1ccnn1C1CCN(Cc2cc(Cl)ccc2O)CC1)C1CC1`, the Potency is reported as inconclusive [inhibitor, partial curve, poor fit].
In the case of `CCOC(=O)CNC(c1ccccc1)c1cc(Br)ccc1NC(=O)CCN1CCOCC1` (stereo not drawn), the Potency is reported as inconclusive [inhibitor, partial curve, poor fit].
With `Cc1ccccc1S(=O)(=O)Cc1ccc(C(=O)NCCCN(C)Cc2ccccc2)o1` the Potency was inconclusive [inhibitor, partial curve, poor fit].
With `COc1ccc2ccccc2c1-c1sc(Nc2ccccc2)n[n+]1-c1ccc(F)cc1` the Potency was inconclusive [inhibitor, partial curve].
With `COc1ccc(OC)c2[nH]c(=O)c(CCNC(=O)c3ccc(Br)o3)cc12` the Potency was active: 11.7 µM.
With `CCOC(=O)C1CCN(C(=O)CN(c2ccc(Oc3ccccc3)cc2)S(C)(=O)=O)CC1` the Potency was inconclusive [inhibitor, single point].
With `COC(=O)c1[nH]c2ccc(C)cc2c1NC(=O)CN1CCCc2ccccc21` the Potency was active: 4.15 µM.
With `CON(c1nc(N(C)C)nc(N(C)C)n1)S(=O)(=O)c1ccccc1Cl` the Potency was inconclusive [inhibitor, partial curve].
In the case of `C=CCNC(=S)Nc1ccc(OC)c(S(=O)(=O)N2CCOCC2)c1`, the Potency is reported as “inactive”.
With `CC(C)C[C@H](NC(=O)c1nc[nH]c1C(=O)N[C@@H](CCCCNC(=O)OC(C)(C)C)C(=O)OC(C)(C)C)C(=O)OC(C)(C)C` the Potency was active: 3.7 µM.
In the case of `CSc1ccc(C2=CC(=O)C[C@H](c3ccc(Cl)cc3)C2)cc1`, the Potency is reported as inconclusive [inhibitor, single point].
With `CCN(CC)S(=O)(=O)c1cccc(S(=O)(=O)c2cccc(S(=O)(=O)N(CC)CC)c2)c1` the Potency was inconclusive [inhibitor, single point].
In the case of `CN(Cc1cccs1)C(=O)CCc1c[nH]c2ccccc12`, the Potency is reported as “inactive”.
In the case of `CC(C)CCN1CC(=O)N2[C@@H](Cc3c([nH]c4ccccc34)C2(C)C)C1=O`, the Potency is reported as inconclusive [inhibitor, single point].
With `CCn1c2ccccc2c2cc(CN3CCN(C(=O)c4ccco4)CC3)ccc21` the Potency was inconclusive [inhibitor, single point].
For `S=c1c2c(nc3nc[nH]n13)CCC2`, the Potency was active: 2.08 µM.
